Experimental findings from the supplement of paper PMC9588766 are described below.

Where a name gives a salt, the structure may show the parent alone. In all, about 1,900 compounds were measured (“cell viability of compound + 1 nM pemigatinib relative to pemigatinib-only (DMSO) wells”: median about 0.95, lowest 2% from about 0.22 on). The list shows a part of the results.

The experiment relates to PDC-DUC18828. Kind of experiment: cell viability of compound + 1 nM pemigatinib relative to pemigatinib-only (DMSO) wells (fraction); PDC-DUC18828 is a patient-derived cholangiocarcinoma cell line; higher = less growth inhibition. The conditions noted are these: first compound 1 µM; pemigatinib concentration 1 nM; 72 h. Here is the method:
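Selleck Bioactive library screen in the patient-derived FGFR2 fusion-positive ICC cell line PDC-DUC18828 (500 cells/well). Each compound was tested at 1 uM with 1 nM pemigatinib, in triplicate, for 72 h. Viability was read by CellTiter-Glo and normalised to plate DMSO controls. Value is the paper's averaged normalised viability.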
For the molecule `COc1cc(-c2cc(-c3cccc(O)c3)cnc2N)cc(OC)c1OC` + CCN1C(=O)N(c2c(F)c(OC)cc(OC)c2F)Cc2cnc3[nH]c(CN4CCOCC4)cc3c21 [pemigatinib], the cell viability came out at 0.969.

As for `O=C(O)c1ccc(O)c2ncccc12` + CCN1C(=O)N(c2c(F)c(OC)cc(OC)c2F)Cc2cnc3[nH]c(CN4CCOCC4)cc3c21 [pemigatinib], the cell viability was determined as 1.07.

Regarding `COc1cc2ncnc(Nc3ccc(O)c(Br)c3)c2cc1OC` + CCN1C(=O)N(c2c(F)c(OC)cc(OC)c2F)Cc2cnc3[nH]c(CN4CCOCC4)cc3c21 [pemigatinib], the cell viability amounted to 0.787.

In the case of `CO[C@H]1C[C@@H]2CC[C@@H](C)[C@@](O)(O2)C(=O)C(=O)N2CCCC[C@H]2C(=O)O[C@H]([C@H](C)C[C@@H]2CC[C@H](n3cnnn3)[C@H](OC)C2)CC(=O)[C@H](C)/C=C(\C)[C@@H](O)[C@@H](OC)C(=O)[C@H](C)C[C@H](C)/C=C/C=C/C=C/1C` [Zotarolimus(ABT-578)] + CCN1C(=O)N(c2c(F)c(OC)cc(OC)c2F)Cc2cnc3[nH]c(CN4CCOCC4)cc3c21 [pemigatinib], the cell viability stood at 0.546.

In the case of `CCCC(=O)Nc1cccc(NC(=O)c2ccccc2Br)c1` + CCN1C(=O)N(c2c(F)c(OC)cc(OC)c2F)Cc2cnc3[nH]c(CN4CCOCC4)cc3c21 [pemigatinib], the cell viability worked out at 0.822.

On to `C=C1[C@H](CO)[C@@H](O)C[C@@H]1n1cnc2c(=O)[nH]c(N)nc21` [Entecavir Hydrate] + CCN1C(=O)N(c2c(F)c(OC)cc(OC)c2F)Cc2cnc3[nH]c(CN4CCOCC4)cc3c21 [pemigatinib], for which the cell viability is 0.916.

In the case of `CC(=O)O[C@]1(C(C)=O)CC[C@H]2[C@@H]3C=C(C)C4=CC(=O)CC[C@]4(C)[C@H]3CC[C@@]21C` [Megestrol Acetate] + CCN1C(=O)N(c2c(F)c(OC)cc(OC)c2F)Cc2cnc3[nH]c(CN4CCOCC4)cc3c21 [pemigatinib], the cell viability stood at 0.902.

Turning to `CN(C)C(=O)c1cc2cnc(Nc3ccc(N4CCNCC4)cn3)nc2n1C1CCCC1` + CCN1C(=O)N(c2c(F)c(OC)cc(OC)c2F)Cc2cnc3[nH]c(CN4CCOCC4)cc3c21 [pemigatinib], the cell viability amounted to 0.99.

Consider `CN1CCN(c2ccc(Nc3cc(-c4cccc(-n5ccc6cc(C7CC7)cc(F)c6c5=O)c4CO)cn(C)c3=O)nc2)CC1` + CCN1C(=O)N(c2c(F)c(OC)cc(OC)c2F)Cc2cnc3[nH]c(CN4CCOCC4)cc3c21 [pemigatinib], for which the cell viability was found to be 0.915.

Regarding `Oc1cc(O)cc(/C=C/c2ccc(O)c(O)c2)c1` [Piceatannol] + CCN1C(=O)N(c2c(F)c(OC)cc(OC)c2F)Cc2cnc3[nH]c(CN4CCOCC4)cc3c21 [pemigatinib], the cell viability worked out at 0.863.

`O=C(NC1CC1)c1cc(-c2cccs2)on1` [Isoxazole 9 (ISX-9)] + CCN1C(=O)N(c2c(F)c(OC)cc(OC)c2F)Cc2cnc3[nH]c(CN4CCOCC4)cc3c21 [pemigatinib]: the cell viability turned out to be 1.01.

Take `Nc1nc(=O)[nH]cc1F` [Flucytosine] + CCN1C(=O)N(c2c(F)c(OC)cc(OC)c2F)Cc2cnc3[nH]c(CN4CCOCC4)cc3c21 [pemigatinib]: the cell viability is 0.95.

Consider `CC[C@@]1(O)C(=O)OCc2c1cc1n(c2=O)Cc2cc3c(CN(C)C)c(O)ccc3nc2-1` [Topotecan HCl] + CCN1C(=O)N(c2c(F)c(OC)cc(OC)c2F)Cc2cnc3[nH]c(CN4CCOCC4)cc3c21 [pemigatinib], for which the cell viability is 0.0983.

For the molecule `Nc1nnc(-c2cccc(Cl)c2Cl)c(N)n1` [Lamotrigine] + CCN1C(=O)N(c2c(F)c(OC)cc(OC)c2F)Cc2cnc3[nH]c(CN4CCOCC4)cc3c21 [pemigatinib], the cell viability was 0.867.

Regarding `CCOC(=O)N[C@@H]1CC[C@@H]2[C@@H](C1)C[C@H]1C(=O)O[C@H](C)[C@H]1[C@H]2/C=C/c1ccc(-c2cccc(F)c2)cn1` [Vorapaxar] + CCN1C(=O)N(c2c(F)c(OC)cc(OC)c2F)Cc2cnc3[nH]c(CN4CCOCC4)cc3c21 [pemigatinib], the cell viability turned out to be 0.932.

As for `Cc1cc(Nc2cc(CN3CCOCC3)c3nc(C)c(Cc4ccc(Cl)cc4F)n3n2)n[nH]1` + CCN1C(=O)N(c2c(F)c(OC)cc(OC)c2F)Cc2cnc3[nH]c(CN4CCOCC4)cc3c21 [pemigatinib], the cell viability turned out to be 0.361.

Consider `Cn1sc(=O)n(Cc2ccccc2)c1=O` + CCN1C(=O)N(c2c(F)c(OC)cc(OC)c2F)Cc2cnc3[nH]c(CN4CCOCC4)cc3c21 [pemigatinib], for which the cell viability amounted to 0.896.

As for `COc1ccc2cc3[n+](cc2c1OC)CCc1cc2c(cc1-3)OCO2` [Berberine HCl] + CCN1C(=O)N(c2c(F)c(OC)cc(OC)c2F)Cc2cnc3[nH]c(CN4CCOCC4)cc3c21 [pemigatinib], the cell viability is 0.879.

`COc1cc2c(cc1Cc1cccc(Cl)c1F)c(=O)c(C(=O)O)cn2[C@H](CO)C(C)C` [Elvitegravir (GS-9137, JTK-303)] + CCN1C(=O)N(c2c(F)c(OC)cc(OC)c2F)Cc2cnc3[nH]c(CN4CCOCC4)cc3c21 [pemigatinib]: the cell viability worked out at 0.99.

Consider `COc1ccc2c(c1)c(CC(=O)OCC(=O)O)c(C)n2C(=O)c1ccc(Cl)cc1` [Acemetacin] + CCN1C(=O)N(c2c(F)c(OC)cc(OC)c2F)Cc2cnc3[nH]c(CN4CCOCC4)cc3c21 [pemigatinib], for which the cell viability was found to be 0.944.

On to `CC(=O)NC[C@H]1CN(c2ccc(N3CCOCC3)c(F)c2)C(=O)O1` [Linezolid] + CCN1C(=O)N(c2c(F)c(OC)cc(OC)c2F)Cc2cnc3[nH]c(CN4CCOCC4)cc3c21 [pemigatinib], for which the cell viability stood at 1.

`Cc1nccn1CC1CCc2c(c3ccccc3n2C)C1=O` (configuration not stated) [Ondansetron HCl] + CCN1C(=O)N(c2c(F)c(OC)cc(OC)c2F)Cc2cnc3[nH]c(CN4CCOCC4)cc3c21 [pemigatinib]: the cell viability came out at 0.979.

With `CC1=C(C(=O)O)N2C(=O)[C@@H](NC(=O)[C@H](N)c3ccccc3)[C@H]2SC1` [Cephalexin] + CCN1C(=O)N(c2c(F)c(OC)cc(OC)c2F)Cc2cnc3[nH]c(CN4CCOCC4)cc3c21 [pemigatinib], the cell viability is 0.952.

`CC[C@H](C)C(=O)O[C@H]1C[C@H](O)C=C2C=C[C@H](C)[C@H](CC[C@@H](O)C[C@@H](O)CC(=O)O)[C@H]21` [Pravastatin sodium] + CCN1C(=O)N(c2c(F)c(OC)cc(OC)c2F)Cc2cnc3[nH]c(CN4CCOCC4)cc3c21 [pemigatinib]: the cell viability came to 0.911.

`CC(C)(C)OC(=O)Nc1ccc(-c2cc(C(=O)NCCCCCCC(=O)NO)no2)cc1` + CCN1C(=O)N(c2c(F)c(OC)cc(OC)c2F)Cc2cnc3[nH]c(CN4CCOCC4)cc3c21 [pemigatinib]: the cell viability amounted to 0.459.

In the case of `COc1cc(-c2cc(-c3ccc(N4CCNCC4)cc3)cnc2C)cc(OC)c1OC` + CCN1C(=O)N(c2c(F)c(OC)cc(OC)c2F)Cc2cnc3[nH]c(CN4CCOCC4)cc3c21 [pemigatinib], the cell viability worked out at 0.955.

On to `Nc1ccccc1NC(=O)c1ccc(CNc2nccc(-c3cccnc3)n2)cc1` [Mocetinostat (MGCD0103)] + CCN1C(=O)N(c2c(F)c(OC)cc(OC)c2F)Cc2cnc3[nH]c(CN4CCOCC4)cc3c21 [pemigatinib], for which the cell viability was determined as 0.721.

Regarding `Cc1ccc(S(=O)(=O)/C=C/C#N)cc1` + CCN1C(=O)N(c2c(F)c(OC)cc(OC)c2F)Cc2cnc3[nH]c(CN4CCOCC4)cc3c21 [pemigatinib], the cell viability is 0.844.

For the molecule `Cc1ccc(C(=O)C(C)CN2CCCCC2)cc1` (configuration not stated) [Tolperisone HCl] + CCN1C(=O)N(c2c(F)c(OC)cc(OC)c2F)Cc2cnc3[nH]c(CN4CCOCC4)cc3c21 [pemigatinib], the cell viability was 1.02.

As for `CNCC[C@@H](Oc1ccccc1C)c1ccccc1` [Atomoxetine HCl] + CCN1C(=O)N(c2c(F)c(OC)cc(OC)c2F)Cc2cnc3[nH]c(CN4CCOCC4)cc3c21 [pemigatinib], the cell viability is 0.904.

Regarding `Cc1cc(Nc2ncc(Cl)c(Nc3ccccc3S(=O)(=O)C(C)C)n2)c(OC(C)C)cc1C1CCNCC1` + CCN1C(=O)N(c2c(F)c(OC)cc(OC)c2F)Cc2cnc3[nH]c(CN4CCOCC4)cc3c21 [pemigatinib], the cell viability came out at 0.889.

With `O=C(O)Cc1cc(I)c(Oc2ccc(O)c(I)c2)c(I)c1` [Tiratricol] + CCN1C(=O)N(c2c(F)c(OC)cc(OC)c2F)Cc2cnc3[nH]c(CN4CCOCC4)cc3c21 [pemigatinib], the cell viability was 0.979.

`CCC(CC)(NC(=O)C(C)C)C(=O)N[C@@H](CCCN=C(N)N)C(=O)NC1(C(=O)NC(c2ccc(F)cc2)c2ccc(F)cc2)CCCC1` + CCN1C(=O)N(c2c(F)c(OC)cc(OC)c2F)Cc2cnc3[nH]c(CN4CCOCC4)cc3c21 [pemigatinib]: the cell viability is 0.994.

Regarding `C[C@@H](Oc1cc(-c2cnn(C3CCNCC3)c2)cnc1N)c1c(Cl)ccc(F)c1Cl` + CCN1C(=O)N(c2c(F)c(OC)cc(OC)c2F)Cc2cnc3[nH]c(CN4CCOCC4)cc3c21 [pemigatinib], the cell viability was 0.821.

`CC(=O)/N=c1/sc(S(N)(=O)=O)nn1C` [Methazolamide] + CCN1C(=O)N(c2c(F)c(OC)cc(OC)c2F)Cc2cnc3[nH]c(CN4CCOCC4)cc3c21 [pemigatinib]: the cell viability worked out at 0.923.

`CC1=CC(=O)c2ccccc2C1=O` [Menadione] + CCN1C(=O)N(c2c(F)c(OC)cc(OC)c2F)Cc2cnc3[nH]c(CN4CCOCC4)cc3c21 [pemigatinib]: the cell viability amounted to 1.02.

On to `COCCCOc1cc(C[C@@H](C[C@H](N)[C@@H](O)C[C@H](C(=O)NCC(C)(C)C(N)=O)C(C)C)C(C)C)ccc1OC` [Aliskiren Hemifumarate] + CCN1C(=O)N(c2c(F)c(OC)cc(OC)c2F)Cc2cnc3[nH]c(CN4CCOCC4)cc3c21 [pemigatinib], for which the cell viability amounted to 1.03.
